PubChem BioAssay AID1476 (National Center for Advancing Translational Sciences (NCATS), 2009)
Where “and” joins values, the source holds several entries; their conditions need not be identical. Identical values can stand only once. Out of some 200,000 compounds screened, about 4,500 (2.2%) were called active. The shares of active, inactive and inconclusive entries below differ from those in the screen. The call rests on the fitted dose curve; in most records, active means well fitted inhibition curve with a large enough effect; inconclusive means small, poorly fitted or top-dose-only effect, or effect the other way; inactive means flat fitted curve, though single readings scatter. Potencies of inconclusive entries are doubtful fits and often do not repeat.
Further: nearly all actives have a fitted effect of over 40% in size.
Potency means the concentration at half of the fitted maximal effect; tags describe the fitted curve by direction and shape.
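Wherever max response, negative = inhibition is given: plate controls were enzyme without inhibitor for no effect and buffer without enzyme for full effect.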

The compounds below were run against Cruzipain (Trypanosoma cruzi) (UniProt P25779) (assay: qHTS Assay for Promiscuous and Specific Inhibitors of Cruzain (without detergent)). Conditions: purified cruzain, Z-FR-AMC fluorescence, no detergent.
UniProt P25779, sequence (P25779 whole entry, looked up): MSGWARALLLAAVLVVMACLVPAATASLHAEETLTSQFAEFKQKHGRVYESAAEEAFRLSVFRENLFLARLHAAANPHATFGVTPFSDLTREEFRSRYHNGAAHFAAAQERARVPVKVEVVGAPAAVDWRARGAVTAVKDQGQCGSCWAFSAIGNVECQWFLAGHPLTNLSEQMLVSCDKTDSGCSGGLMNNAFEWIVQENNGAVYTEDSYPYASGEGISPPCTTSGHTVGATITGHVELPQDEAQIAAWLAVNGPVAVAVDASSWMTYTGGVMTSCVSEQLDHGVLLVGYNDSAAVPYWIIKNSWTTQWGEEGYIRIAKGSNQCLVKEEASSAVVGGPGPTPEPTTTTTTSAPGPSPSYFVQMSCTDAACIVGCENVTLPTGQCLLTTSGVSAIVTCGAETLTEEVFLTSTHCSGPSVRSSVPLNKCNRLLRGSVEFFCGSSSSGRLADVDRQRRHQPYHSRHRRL
Method in brief: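 Purified cruzain at 1.5 nM, pre-incubated 15 min with compound at room temperature in 100 mM sodium acetate pH 5.5, 5 mM DTT, 0.00005% Triton X-100. Reaction started with 2 uM Z-FR-AMC; AMC fluorescence increase over 60 s gives rate.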
`Cc1ccc(-c2nnc(Nc3ccc(C(=O)N(C)C)cc3)c3ccccc23)cc1S(=O)(=O)NCC1CCCO1` (centres undefined) was tested, and the max response, negative = inhibition was inconclusive: 58.5% [activator].
In the case of `C=CCn1cc(/C=N/NC(=O)COc2cccc3cccnc23)c2ccccc21`, the Potency is reported as inconclusive: 39.8 µM [activator, single point].
In the case of `CC(C)CC(=O)Nc1ccc(Nc2ccccc2)cc1`, the Potency is reported as inconclusive: 20 µM [inhibitor, single point].
For `Cc1ccccc1NC(C)C(=O)N/N=C/c1ccccc1OCc1cccc(Br)c1` (centres undefined), the Potency was active: 31.6 µM.
With `O=[N+]([O-])c1ccc(N2CCN(S(=O)(=O)c3ccccc3[N+](=O)[O-])CC2)cc1NCc1cccnc1` the Potency was inconclusive: 39.8 µM [inhibitor, single point].
For `Nc1cc(=O)[nH]c(SCc2csc(-c3ccccc3)n2)n1`, the Potency was inconclusive: 39.8 µM [inhibitor, single point].
In the case of `Cc1ccc(OCC(O)Cn2c(NCCc3ccccc3)nc3c2c(=O)[nH]c(=O)n3C)cc1` (centres undefined), the Potency is reported as inconclusive: 31.6 µM [inhibitor, single point].
In the case of `CC(=O)N1c2ccc3ccccc3c2C2C=CCC2C1c1ccc(Br)cc1` (centres undefined), the Potency is reported as inconclusive: 39.8 µM [inhibitor, single point].
`COc1cc(/C=N/N2CCN(C3c4ccccc4-c4ccccc43)CC2)cc(OC)c1O` was tested, and the Potency was inconclusive: 39.8 µM [activator, single point].
`COc1ccccc1NC(=S)N/N=C/c1cccc(C)c1` was tested, and the Potency was inconclusive: 31.6 µM [activator, single point].
In the case of `CCOCC(=O)O`, the max response, negative = inhibition is reported as inactive: -3.99%.
`O=C(CCCCCn1c(=O)[nH]c2ccccc2c1=O)NCCc1ccccc1` was tested, and the max response, negative = inhibition was inactive: -7.83%.
For `CC1(C)CCC[C@@]2(C)C1CC[C@@](C)(O)[C@@H]2CC[C@@](C)(O)C1CO1` (some centres undefined), the Potency was inconclusive: 39.8 µM [activator, single point].
For `CCc1cccc2c(C(=O)CSc3nnc(-c4ccncc4)n3C)c[nH]c12`, the Potency was inconclusive: 25.1 µM [inhibitor, single point].
For `O=c1c(O)c(-c2ccc(O)cc2)oc2ccc(O)cc12`, the max response, negative = inhibition was inactive: 2.08%.
`CCOC(CNC(=O)c1cccn2c(=O)c3cc(Cl)ccc3nc12)OCC` was tested, and the Potency was inconclusive: 25.1 µM [activator, single point].
In the case of `Cc1sc2ncnc(N/N=C/c3cccc(O)c3)c2c1C`, the Potency is reported as inconclusive: 39.8 µM [activator, single point].
In the case of `COc1ccc(C2CC(c3ccc(Cl)c(Cl)c3)Nc3nc(N)nn32)cc1` (centres undefined), the Potency is reported as inconclusive: 39.8 µM [activator, single point].
For `Cc1ccccc1OCc1nc2ccccc2c(=O)n1/N=C/c1c[nH]c2ccccc12`, the Potency was inconclusive: 39.8 µM [inhibitor, single point].
`Clc1ccc(-n2ncc3c(NCc4ccccn4)ncnc32)cc1` was tested, and the Potency was inconclusive: 39.8 µM [activator, single point].
With `Clc1ccccc1Cn1cccc1C1=NC(Cc2ccccc2)CO1` (centres undefined) the max response, negative = inhibition was inactive: 1.52%.
`CCN(C(=O)c1cnc(N2CCN(c3ncccn3)CC2)c2ccccc12)c1cccc(Cl)c1` was tested, and the Potency was inconclusive: 39.8 µM [activator, single point].
`COc1ccc(-c2nc3ccc(NS(C)(=O)=O)cc3o2)cc1` was tested, and the Potency was inconclusive: 39.8 µM [inhibitor, single point].
`CCn1cc(C(=O)Nc2sc(C)c(C)c2C(=O)OC)cn1` was tested, and the Potency was inconclusive: 31.6 µM [inhibitor, single point].
`Cc1cc(SCC(=O)c2cccs2)n2nc(C)c(-c3ccc(Cl)cc3)c2n1` was tested, and the Potency was inconclusive: 39.8 µM [inhibitor, single point].
In the case of `O=C(NCCOCCO)C(=O)Nc1c2c(nn1-c1ccc(F)cc1)CSC2`, the Potency is reported as inconclusive: 31.6 µM [activator, single point].
In the case of `Cc1cccc(NC(=O)c2cc3c(=O)n(Cc4ccco4)ccc3nc2C)c1`, the Potency is reported as inconclusive: 31.6 µM [activator, single point].
`Cc1cccc(NC(=O)CSc2nc3ccc(NC(=O)COc4ccc(Cl)cc4)cc3s2)c1` was tested, and the Potency was active: 7.94 µM.
For `C=CCNC(=O)C(C#N)c1nc2ccccc2nc1N1CCCCCC1` (centres undefined), the Potency was inconclusive: 31.6 µM [activator, single point].
For `CCn1cc(C(=O)NCCc2ccc(Cl)cc2)c(=O)c2cc(S(=O)(=O)N3CCc4ccccc4C3)ccc21`, the max response, negative = inhibition was inactive: -2.45%.
For `COc1ccc(Cn2ccc3nc(C)c(C(=O)Nc4ccc(F)cc4)cc3c2=O)cc1`, the Potency was inconclusive: 31.6 µM [activator, single point].
With `CCOC(=O)CC(NC(=O)CCc1c(C)nc2c(-c3ccccc3)c(C)nn2c1C)c1ccc(C)cc1` (centres undefined) the Potency was inconclusive: 31.6 µM [activator, partial curve].
`COc1ccc(-c2c3c(=O)n(C)c(=O)n(C)c3cn2-c2cccc(N)c2)cc1` was tested, and the Potency was inconclusive: 31.6 µM [inhibitor, single point].
`CCOc1ccc(S(=O)(=O)N/N=C2/CC(c3ccccc3)Oc3ccccc32)cc1` (centres undefined) was tested, and the Potency was inconclusive: 39.8 µM [inhibitor, single point].
`O=C(Nc1ccc(F)cc1)N1CCN(c2ccc3nnc(-c4ccc(F)cc4)n3n2)CC1` was tested, and the Potency was inconclusive: 39.8 µM [activator, single point] and inconclusive: 31.6 µM [activator, single point].
For `COc1cc2c(cc1NC(=O)Nc1ccc(C)cc1)oc1ccccc12`, the Potency was inconclusive: 39.8 µM [inhibitor, single point].
For `CCCCCCCOC(=O)c1ccc(OC(=O)c2cccnc2)cc1`, the Potency was inconclusive: 39.8 µM [activator, single point].
`NC(=O)CC[C@@H]1NC(=O)[C@@H]2CCCN2C(=O)c2cc([N+](=O)[O-])cc(I)c2NCCC[C@@H](C(=O)NC(CC(=O)O)C(N)=O)NC1=O` (some centres undefined) was tested, and the Potency was inconclusive: 39.8 µM [activator, single point].
For `CCOC(=O)c1c(S(=O)(=O)NCC(=O)N2CCN(c3cccc(Cl)c3)CC2)c(C)n(C)c1C`, the Potency was inconclusive: 25.1 µM [activator, partial curve].
